The record followed here is ChEMBL document CHEMBL4888484, “Replenishing the malaria drug discovery pipeline: Screening and hit evaluation of the MMV Hit Generation Library 1 (HGL1) against asexual blood stage Plasmodium falciparum ,using a nano luciferase reporter read-out” (2022).

The whole screen tested about 150,000 compounds, of which about 540 (0.36%) showed an effect of 50% or more. This is one part of the list.

By % Inhibition is commonly meant the change of the read-out against control, counted positive when it falls.

The assay deals with Plasmodium falciparum. Kind of assay: Primary screen in NF54 nanoGlo assay, in single point, at 2uM, 72h; a lower Z score goes with more inhibition. Conditions: timepoint 72 hour. The format is functional, Erythrocyte.
Turning to `COc1cccc(-c2ccc(N3CCC(NCc4nnc(C)o4)CC3)cc2)c1`, the “% Inhibition” value was 2% and the Z score is listed as -0.3.
As to `CC(C)[C@@H]1CN(CCN2CCNC2=O)c2ccccc21`, the “% Inhibition” value is -7% and the Z score was determined as 1.27.
`Cc1ccc2c(c1)c(=O)n(-c1cccc(Cl)c1)c(=O)n2CC(=O)NCc1cccnc1`: the “% Inhibition” value is reported as -3% and the Z score is listed as 0.49.
The matching figures for `CCCCNCCCOc1cc(C)cc(C(C)C)c1`: -10% and 1.3.
For `CC(C)c1nccn1Cc1nnc(-c2cccs2)o1`, in that order: -7% and 1.33.
Regarding `CC(=O)NCCCC(=O)N1CCC2(CCCCCC2)C1`, the “% Inhibition” value is -11% and the Z score was found to be 1.21.
The matching figures for `N=C(N)Nc1ccc(/C=C2\C=Cc3ccccc32)cc1`: -3% and 0.48.
The matching figures for `CCOc1nccnc1N1C[C@@H](CN)[C@H](c2ccccc2)C1`: 4% and -0.75.
For `CC(C)CCN(CCC#N)c1ncnc2c1ncn2CC(CO)C1CCOC1` (centres undefined), in that order: 1% and -0.2.
On to `Cc1ccc(Cl)cc1NC(=O)Cn1cnc2c(C(N)=O)nsc2c1=O`, for which the “% Inhibition” value is recorded as -9% and the Z score was found to be 1.24.
Turning to `Cc1ccc(-n2nc(C(C)(C)C)c(NC(=O)NCc3ccccc3)c2N)c(C)c1`, the “% Inhibition” value was -1% and the Z score is 0.2.
For the compound `Cc1ccc(-c2ccc3nnc(CCC(=O)NC4CCC(C)CC4)n3n2)cc1C` (centres undefined), the “% Inhibition” value was -9% and the Z score turned out to be 1.19.
In the case of `O=C(c1c[nH]c2ccccc12)C(O)C(c1ccc(Cl)cc1)N1CCN(CCO)CC1` (centres undefined), the “% Inhibition” value is on record as -2% and the Z score amounted to 0.4.
With `Cc1nn(C)cc1C(=O)CC(=O)c1cn(C)nc1C`, the “% Inhibition” value was -3% and the Z score turned out to be 0.43.
As to `CC[C@H]1C(=O)NCCN1C(=O)c1cc(-c2ccc(F)cc2)c(C)s1`, the “% Inhibition” value came out at 21% and the Z score was -2.4.
On to `O=C(c1ccc(F)c(Cl)c1)N1C[C@@H]2CC[C@@H](C2)C1`, for which the “% Inhibition” value is on record as -3% and the Z score is recorded as 0.6.
The matching figures for `Cc1nc(NC(=O)c2coc(C3CC3)n2)n(-c2ccc(F)cc2C)n1`: -6% and 0.95.
For `CCn1nc(C)c(CNCc2c(C(=O)N3CCCCCC3)nc3cc(C)ccn23)c1C`, in that order: -30% and 2.64.
As for `CCN(CCC(F)(F)F)C(=O)[C@H]1CC(=O)N(CC)[C@@H]1c1nccn1CC`, the “% Inhibition” value is listed as 4% and the Z score is listed as -0.66.
For the compound `O=C(NCc1cccc(Cl)c1)c1coc(COc2ccc3c(c2)OCO3)n1`, the “% Inhibition” value is -13% and the Z score came out at 1.59.
For `c1ccc(COCCc2noc([C@@H]3CCCCN3)n2)cc1`, in that order: -1% and 0.16.
For `O=C(NCc1cccnc1-c1ccncc1)[C@@H]1CCCO1`, in that order: -5% and 0.96.
The matching figures for `O=C1OC[C@H]2CN(c3ncnc4sccc34)CCN12`: 8% and -1.28.
`CCn1c(Oc2cccnc2)nc2c1c(=O)n(C)c(=O)n2C`: the “% Inhibition” value stood at 7% and the Z score is recorded as -1.16.
Regarding `Cc1cc(C(=O)N2CCC(C)C2CO)c(C)n1-c1cccc(Cl)c1` (centres undefined), the “% Inhibition” value turned out to be 5% and the Z score is -0.73.
For `COc1ccc2c(CC(=O)N3CCC[C@H]3C(N)=O)coc2c1C`, in that order: -6% and 1.24.
`Cc1csc(CN(C)C(=O)c2cc3ncccn3n2)n1`: the “% Inhibition” value is 7% and the Z score was -1.49.
For `O=C(O)[C@@H](c1ccc(OCC2CC2)cc1)N1CCC(Cn2ccnc2)CC1`, in that order: -1% and 0.15.
For `O=C(NC1c2ccccc2CCC1n1ccnc1)c1cscn1` (centres undefined), in that order: -14% and 1.16.
The matching figures for `O=S(=O)(c1ccc(F)cc1)n1nc(Nc2ccccc2Cl)cc1Nc1ccccc1Cl`: -3% and 0.49.
Consider `CC(C)CCC(=O)NCC(=O)NCc1ccnc(N2CCCCCC2)c1`, for which the “% Inhibition” value is listed as -20% and the Z score is listed as 2.02.
For the compound `CN1C(=O)c2cc(NC(=O)c3ccccc3Cl)ccc2Oc2ncccc21`, the “% Inhibition” value is reported as -18% and the Z score came out at 1.94.
As to `CC1OCCC1S(=O)(=O)N1CCc2cc(Br)ccc21` (centres undefined), the “% Inhibition” value was -12% and the Z score is 2.23.
For `C1CCC(c2nsc(NCc3nnn[nH]3)n2)C1`, in that order: -1% and 0.22.
The matching figures for `O=C(NC1CCCC1)N1CC[C@H](Cc2noc(C3CC3)n2)C1`: 11% and -1.38.
For `O=C(CC1CC1)NCc1cnn2c1CCCC2`, in that order: -1% and 0.09.
In the case of `CN(C)S(=O)(=O)NC1C(C)(C)C(NS(=O)(=O)N(C)C)C1(C)C` (centres undefined), the “% Inhibition” value is reported as 1% and the Z score is listed as -0.13.
On to `CN(C)S(=O)(=O)c1csc(C(=O)NCc2cccnc2)c1`, for which the “% Inhibition” value was -21% and the Z score came out at 1.94.
With `CCOc1ccc(C(=O)N(CN2CCCC2=O)c2cc(C)on2)cc1`, the “% Inhibition” value was -1% and the Z score is 0.23.
With `COc1ccc(F)cc1CN1CCN(CC(=O)N2CCN(c3ccccc3)CC2)CC1`, the “% Inhibition” value is listed as -13% and the Z score is on record as 1.24.
The matching figures for `Cc1ccc([C@H]2CN(C(=O)c3cc(-c4ccccc4)on3)C[C@@H]2N)o1`: 2% and -0.45.
The matching figures for `Cc1ccc(C(=O)N2CC[C@H](N3CCN(C)CC3)[C@H](CCCO)C2)cc1O`: -12% and 1.77.
